# Laboratory results as given in PubChem BioAssay AID485294 (National Center for Advancing Translational Sciences (NCATS), 2010).
# Screen size: about 370,000 compounds; about 150 (0.041%) were called active. Inconclusive means that the source gave no clear call. Such entries were picked first, then a sample of the others. Calls follow the shape of the dose curve; as a rule, active = well fitted inhibition curve with a large enough effect; inconclusive = small, poorly fitted or top-dose-only effect; inactive = flat fitted curve, though single readings scatter. Potencies of inconclusive entries are left out as doubtful fits.
# Target: Beta-lactamase (Escherichia coli (strain K12)) (UniProt P00811)
# Sequence of UniProt P00811 (P00811 whole entry, looked up): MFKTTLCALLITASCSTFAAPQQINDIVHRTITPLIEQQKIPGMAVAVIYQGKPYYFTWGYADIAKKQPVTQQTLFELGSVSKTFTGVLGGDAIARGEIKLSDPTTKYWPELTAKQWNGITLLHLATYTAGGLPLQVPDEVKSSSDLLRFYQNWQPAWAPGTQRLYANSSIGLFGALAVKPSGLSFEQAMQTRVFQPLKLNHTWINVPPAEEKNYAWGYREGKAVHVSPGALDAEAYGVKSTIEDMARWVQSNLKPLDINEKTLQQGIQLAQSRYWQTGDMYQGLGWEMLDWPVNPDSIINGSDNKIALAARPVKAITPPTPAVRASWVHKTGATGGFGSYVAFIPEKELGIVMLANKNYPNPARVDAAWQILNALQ
# Assay: qHTS Inhibitors of AmpC Beta-Lactamase (assay with detergent); also: nearly all actives have a fitted effect of over 25% in size;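 as to activity change, negative = inhibition: 0% = no-compound wells and -100% = no-enzyme wells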
# Conditions: AmpC hydrolysis of nitrocefin, absorbance 480 nm, 0.01% Triton; activity change, negative = inhibition: at 114 µM (top of the series)
# Outline: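 20 mM phosphate pH 7.0 + 0.01% (detergent screen) or 0.0001% Triton X-100; 5.3 nM AmpC reagent; cpd preinc 15 min RT; nitrocefin (800 uM stock) to start; A480 q20 s × 4 min; Activity was normalised to no-enzyme and no-compound control wells.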
# Potency is read from the fitted curve at half-maximal effect; tags tell the direction and shape of the fitted curve.
Structure (SMILES),"activity change, negative = inhibition",Potency
O=C(CC1CCCC1)Nc1cc(C(F)(F)F)ccc1-n1cncn1,inactive: -1.2%,
CN(Cc1ccc(F)cc1)C(=O)c1cccc(S(=O)(=O)NCc2ccccc2)c1,,"inconclusive [inhibitor, full curve, poor fit]"
Cc1ccc(S(=O)(=O)NCC(=O)N(CC(=O)NCC2CCCO2)c2ccc(Cl)cc2)cc1 (stereo not given),,"inconclusive [inhibitor, full curve, poor fit]"
O=C(NN=C1CCCCCC1)c1ccc(Cl)s1,,"inconclusive [inhibitor, full curve, poor fit]"
COc1cccc(C(c2sc3nc(C)nn3c2O)N2CCN(C(=O)c3ccco3)CC2)c1 (stereo not given),,"inconclusive [inhibitor, full curve]"
COc1ccc(Cl)cc1NC(=O)CN1c2ccccc2S(=O)(=O)c2ccccc21,inactive: 24.3%,
CC(=O)c1sc(NC(=O)C2CSC3(C)CCC(=O)N23)nc1-c1ccccc1 (stereo not given),,"inconclusive [inhibitor, full curve]"
Cc1ccccc1C(=O)N1CCN(c2ccc([N+](=O)[O-])c(NCc3cccnc3)c2)CC1,,"inconclusive [inhibitor, full curve, poor fit]"
C=CCC(NC(C)c1ccccc1)c1ccco1 (stereo not given),,"inconclusive [inhibitor, partial curve, poor fit]"
CCC(=O)N1CCN(c2ccccc2NC(=O)Cc2ccc(Cl)cc2)CC1,,"inconclusive [inhibitor, full curve, poor fit]"
COc1ccc(N2C(=O)C(CC(=O)Nc3ccc(F)cc3)N(CCC3=CCCCC3)C2=O)cc1 (stereo not given),inactive: -8.27%,
O=C(NCc1ccncc1)c1cncc(Br)c1,inactive: -3.19%,
CN1CCc2nc(SCC(=O)Nc3ccc(OC(F)(F)F)cc3)c(C#N)c(-c3cccs3)c2C1,inactive: -5.81%,
COc1cc(CNC(=O)CCCCCCC(C)C)ccc1O,,"inconclusive [inhibitor, full curve, poor fit]"
Cc1ccc(S(=O)(=O)N2CCCC(c3nnc4n3-c3ccccc3SC4)C2)cc1 (stereo not given),,"inconclusive [inhibitor, full curve]"
Cc1ccc(SCC(=O)NCC2COc3ccccc3O2)cc1 (stereo not given),,"inconclusive [inhibitor, partial curve, poor fit]"
O=C(Nc1ccc2oc(-c3ccncc3)nc2c1)c1ccc2c(c1)OCO2,,"inconclusive [inhibitor, partial curve]"
O=S(=O)(Nc1ccc2c(c1)OCCO2)c1cccs1,,"inconclusive [inhibitor, full curve]"
CN(C(=O)COC(=O)CN1C(=O)c2cccc([N+](=O)[O-])c2C1=O)c1ccccc1,,"inconclusive [inhibitor, partial curve]"
CCC(Cn1nnc2ccccc2c1=O)NC(=O)Nc1cccc(Cl)c1 (stereo not given),inactive: 3.27%,
O=C(c1ccco1)N1CCN(c2cc(=O)n(-c3ccc(Cl)cc3)c(=O)[nH]2)CC1,,"inconclusive [inhibitor, full curve, poor fit]"
Cc1ccc2cc(C)c(SCC(=O)Nc3ccc(S(=O)(=O)N4CCCC4)cc3)nc2c1,,"inconclusive [inhibitor, single point]"

Structure (SMILES),"activity change, negative = inhibition",Potency
Cc1ccc(NC(=O)COC(=O)C(CC(C)C)N2C(=O)C3CC=CCC3C2=O)c(C)c1 (stereo not given),inactive: 4.74%,
CCn1c(=S)[nH]c2scc(-c3cccs3)c2c1=O,,"inconclusive [inhibitor, full curve, poor fit]"
COc1ccc(NC(=S)N2CCc3ccccc32)cc1OC,inactive: -0.431%,
COC(=O)c1cc(NC(=O)c2cccc(Cl)c2)c(=O)oc1/C=C/Nc1cc(C)cc(C)c1,,"inconclusive [inhibitor, full curve, poor fit]"
Cc1ccc(C2=NCCn3nc4cc(C(F)(F)F)ccc4c32)cc1,inactive: -6.87%,
COCC(C)n1c(C)cc(C(=O)COc2ccc(S(=O)(=O)N3CCOCC3)cc2Cl)c1C (stereo not given),,"inconclusive [inhibitor, full curve, poor fit]"
Cc1ccc(-c2nc(NC(=O)c3cc(C(C)(C)C)nn3C)sc2C)cc1Cl,inactive: -4.7%,
O=C(Nc1ccccc1C(=O)O)c1cccc(S(=O)(=O)N2CCCC2)c1,inactive: 1.27%,
CC(=O)C1CCC2C3CCC4CC(O)CCC4(C)C3CCC12C (stereo not given),,"inconclusive [inhibitor, full curve, poor fit]"
CC(C)(C)OC(=O)N1CCC[C@H]1C(=O)O,,"inconclusive [inhibitor, full curve, poor fit]"
Cc1ccc(-n2c(=O)cc(N3CCc4ccccc4C3)[nH]c2=O)cc1,,"inconclusive [inhibitor, full curve, poor fit]"
CC(=O)NC(Cc1ccc(F)c(F)c1)C(=O)NC1CCN(S(=O)(=O)c2ccc(C)cc2)CC1 (stereo not given),,"inconclusive [inhibitor, partial curve, poor fit]"
Cc1ccc(NC(=O)CSc2n[nH]c(-c3ccncc3)n2)cc1,,"inconclusive [inhibitor, single point]"
CCOC(=O)c1c(-c2cccs2)csc1NC(=O)c1ccco1,,"inconclusive [inhibitor, partial curve, poor fit]"
Cc1cc(C)c2c(n1)sc1c(=O)n(Cc3ccccc3Cl)nnc12,,"inconclusive [inhibitor, full curve, poor fit]"
Clc1ccc(-c2c[n+](Cc3ccc(Cl)c(Cl)c3)c3n2CCC3)cc1,,"inconclusive [inhibitor, partial curve, poor fit]"
COC(=O)c1ccc(CNCC(O)COc2ccc(-c3ccccc3)cc2)cc1 (stereo not given),,"inconclusive [inhibitor, single point]"
Cc1ccc2c(CN3C(=O)NC(C)(c4ccc5c(c4)OCO5)C3=O)cc(=O)oc2c1 (stereo not given),,"inconclusive [inhibitor, partial curve, poor fit]"
CC(=O)c1cccc(NC(=S)NC(=O)c2ccc(Cl)cc2)c1,inactive: -6.65%,
CCn1cnc2c1c(=O)n(Cc1csc(-c3ccccc3)n1)c(=O)n2Cc1ccccc1,,"inconclusive [inhibitor, partial curve, poor fit]"
COCCNC(=O)C(=O)Nc1c2c(nn1-c1ccccc1)CS(=O)(=O)C2,inactive: 2.34%,
CC(=O)c1ccc(N2CCN(CC(O)COC(c3ccccc3)c3ccccc3)CC2)cc1 (stereo not given),,"inconclusive [inhibitor, full curve, poor fit]"

Structure (SMILES),"activity change, negative = inhibition",Potency
Cc1ccc(-c2nnn(CC(=O)NC3CC4CCC3C4)n2)cc1 (stereo not given),inactive: -1.33%,
CCOc1ccc(NC(=O)C2=C(C)NC(=S)NC2c2ccc(O)c(OC)c2)cc1 (stereo not given),,"inconclusive [inhibitor, partial curve, poor fit]"
CCOc1ccc(N(CC(=O)Nc2ccc(F)c(F)c2)S(=O)(=O)c2c(C)noc2C)cc1,inactive: -11.3%,
Cc1coc2cc3oc(=O)c(CCC(=O)NCc4ccccn4)c(C)c3cc12,,"inconclusive [inhibitor, single point]"
Cc1cc([N+](=O)[O-])ccc1NC(=S)NC(=O)C(c1ccccc1)c1ccccc1,,"inconclusive [inhibitor, full curve]"
Cc1cccc(-n2c(N)cc(=O)[nH]c2=S)c1,,"inconclusive [inhibitor, partial curve]"
Cc1cc(C)n(-c2ncc(-c3ccccc3)nn2)n1,,"inconclusive [inhibitor, single point]"
O=C(CNC1CCCCC1)N1CCC2(CC1)OCCO2,,"inconclusive [inhibitor, full curve, poor fit]"
COC(=O)[C@@]12CCCCN1[C@H](c1ccc(SC3CCCCC3)cc1)[C@@H]1C(=O)N(C)C(=O)[C@@H]12,,"inconclusive [inhibitor, full curve]"
C=CCOC(=O)c1ccc(N2CCN(c3ccccc3)CC2)nc1,inactive: 0.42%,
Cc1cccc(C(=O)NNC(=O)c2ccccc2Br)c1,,"inconclusive [inhibitor, full curve, poor fit]"
O=C1C=C(Nc2cccc(O)c2)CC(c2ccco2)C1 (stereo not given),,"inconclusive [inhibitor, full curve, poor fit]"
O=C(O)CNc1nc(-c2ccccc2)c2cc([N+](=O)[O-])ccc2n1,inactive: -2.64%,
Cc1cccc(C2c3[nH]c4ccccc4c3CCN2C(=O)c2cn(C)c3ccccc3c2=O)n1 (stereo not given),,"inconclusive [inhibitor, full curve, poor fit]"
O=C(NC12CC3CC(CC(C3)C1)C2)N1CCC(n2nnc3ccccc32)CC1,,"inconclusive [inhibitor, partial curve]"
O=C(Cc1cccs1)N1CCN(c2ccccn2)CC1,,"inconclusive [inhibitor, full curve, poor fit]"
CS/C(=N\S(=O)(=O)c1ccccc1)c1ccccc1,,"inconclusive [inhibitor, full curve, poor fit]"
O=[N+]([O-])c1cc(S(=O)(=O)N2CCCCC2)ccc1NCCCN1CCOCC1,,"inconclusive [inhibitor, full curve, poor fit]"
N#CCSc1nnc(Cc2ccc3c(c2)OCO3)o1,,"inconclusive [inhibitor, single point]"
Cc1cc(C)n2nc(C(=O)Oc3ccc4c(c3)OCO4)nc2n1,,"inconclusive [inhibitor, full curve]"
Cc1cccn2c(Nc3ccc4c(c3)OCCO4)c(-c3ccc(Br)o3)nc12,inactive: -3.63%,
